{"source": "patent US20160256527A1", "about": "(ONCOMED PHARMACEUTICALS, published 2016)", "biological_target": "T1, full-length human GITR (cell surface expression) (human, UniProt Q9Y5U5 26-241)", "T1 construct": "whole, on cells; also called hGITR", "T1 sequence (looked up)": "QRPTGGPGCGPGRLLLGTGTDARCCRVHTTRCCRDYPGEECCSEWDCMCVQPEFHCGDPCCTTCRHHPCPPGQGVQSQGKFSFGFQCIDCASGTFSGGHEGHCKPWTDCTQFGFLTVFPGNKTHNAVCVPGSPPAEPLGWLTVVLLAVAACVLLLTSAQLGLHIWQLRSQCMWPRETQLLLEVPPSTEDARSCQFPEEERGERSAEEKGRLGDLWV", "assay": "flow cytometry dose series (2-fold dilutions) on HEK293 cells transiently co-transfected with human GITR and GFP; PE-conjugated anti-Fc secondary antibody", "experimental": "FIG. 5. Dose response of binding of murine GITRL trimer and human GITRL trimer fusion polypeptides to GITR. Shown is a flow cytometry binding analysis of single chain murine GITRL trimer with murine IgG2a Fc domain and single chain human GITRL trimer with human IgG1 Fc domain. HEK293 cells were transiently transfected with an expression vector encoding either human or murine GITR and GFP. Transfected cells were incubated with the indicated fusion protein and analyzed by flow cytometry. Positive binding is determined by observation of cells within the inset box of the FACS plot.\nA comparison of a single chain mGITRL trimer-Fc (336B10) and a single chain hGITRL trimer-Fe (336B11) to bind mouse GITR and human GITR, respectively, was undertaken. Human HEK-293 cells were transiently co-transfected with expression vectors encoding (1) a full-length mouse or human GITR (cell surface expression) and (2) GFP as a transfection marker. […] The cells were stained with a PE-conjugated anti-human or anti-mouse Fc secondary antibody and analyzed by flow cytometry."}
{"binder": "336B11, human single chain GITRL trimer-Fc (IgG1) (Fc fusion, also called OMP-336B11; hGITRL trimer-Fc 336B11) LQLETAKEPCMAKFGPLPSKWQMASSEPPCVNKVSDWKLEILQNGLYLIYGQVAPNANYNDVAPFEVRLYKNKDMIQTLTNKSKIQNVGGTYELHVGDTIDLIFNSEHQVLKNNTYWGIILLANPQFISLQLETAKEPCMAKFGPLPSKWQMASSEPPCVNKVSDWKLEILQNGLYLIYGQVAPNANYNDVAPFEVRLYKNKDMIQTLTNKSKIQNVGGTYELHVGDTIDLIFNSEHQVLKNNTYWGIILLANPQFISLQLETAKEPCMAKFGPLPSKWQMASSEPPCVNKVSDWKLEILQNGLYLIYGQVAPNANYNDVAPFEVRLYKNKDMIQTLTNKSKIQNVGGTYELHVGDTIDLIFNSEHQVLKNNTYWGIILLANPQFIS[human IgG1 Fc not listed]", "values": [{"measurement": "binding result", "value": "binds"}]}
